Measured values from the supplement of paper PMC3334620.
Whole data set: some 33,000 sequences, median “E-score (-0.5 to 0.5)” near -0.036, cut for the highest 2% near 0.37. The list shows a part of the results.

Each sequence was assayed against T1, Yer064c (UniProt P40041) (assay: PBM E-score (8-mer binding enrichment) (E-score (-0.5 to 0.5)); higher = stronger / more preferred TF binding; most listed sequences are background and not binding sites). Details: protein concentration: 200 nM; construct: GST-full length.
T1 sequence: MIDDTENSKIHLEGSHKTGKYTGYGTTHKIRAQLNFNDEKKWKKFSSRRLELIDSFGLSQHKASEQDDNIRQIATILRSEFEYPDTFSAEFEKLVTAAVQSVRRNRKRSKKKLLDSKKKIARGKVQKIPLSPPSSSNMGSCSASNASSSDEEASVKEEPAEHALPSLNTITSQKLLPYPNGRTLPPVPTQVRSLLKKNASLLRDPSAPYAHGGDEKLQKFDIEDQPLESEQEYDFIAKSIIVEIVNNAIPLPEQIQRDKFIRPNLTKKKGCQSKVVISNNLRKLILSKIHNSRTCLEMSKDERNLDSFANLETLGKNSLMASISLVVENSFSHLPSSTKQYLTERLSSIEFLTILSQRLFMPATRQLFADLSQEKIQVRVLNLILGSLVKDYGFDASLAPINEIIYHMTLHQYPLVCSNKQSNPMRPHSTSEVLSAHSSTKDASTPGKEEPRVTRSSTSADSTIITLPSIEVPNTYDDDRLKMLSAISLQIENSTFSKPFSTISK
Protocol: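 Universal 'all 10-mer' protein binding microarrays (Agilent AMADID 015681) probed with GST-tagged S. cerevisiae TFs (full-length or DBD) made by in vitro transcription/translation (PURExpress), about 100-200 nM. Bound TF was detected with fluorescent anti-GST. Each ungapped 8-mer (which stands for itself and its reverse complement) is scored by the PBM enrichment score (E-score), a modified Wilcoxon-Mann-Whitney statistic from -0.5 to +0.5, computed with the Universal PBM Analysis Suite. Scale: above 0.35 generally sequence-specific binding.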

Sequence | PBM E-score
ACTTACAT | -0.0151
ACCATAAC | 0.184
AAAAGGAT | -0.0899
GACGTCAC | -0.158
CACGTAAA | -0.17
CCTCTGTC | -0.293
GACTCCAC | 0.37
AGCTGCAC | -0.251
ACCCTTAA | -0.0712
ACTACCCT | -0.0176
CTAAGAAA | 0.196
TCGGGCCA | -0.109
CCAACCAC | 0.0549
AACTCACA | 0.259
ACTCTTTG | 0.231
CGGAGTGC | -0.141
AGCGTTTG | -0.286
GGGCGGGA | -0.114
AGCAGCAA | 0.00509
ACAGGGGT | -0.0538
AGGATCGC | -0.171
CGAGTACA | 0.138
ACGACCGT | -0.14
GCAGGCAC | -0.0617
ACCAACAC | 0.0631

Sequence | PBM E-score
CCGTCCAA | -0.192
ATGAACTA | 0.0302
AGGTGCTA | -0.153
GATGGTGC | -0.357
ATGTCTAG | 0.227
CCTCGGTA | -0.16
CCCAGCCA | -0.107
ATACGTGA | 0.187
ACCTATGC | -0.0957
CGCGTTAG | -0.0343
ACGTCTTC | -0.127
ACGCAAAC | -0.0295
ACCCCAGC | -0.127
ATTACGAA | 0.156
CCCGACAG | -0.146
CCCATCAG | -0.2
TATTTTAA | 0.139
CGGCATAG | 0.0681
CCCGTTAG | -0.24
AGGCCGGC | -0.3
ATATGAAT | 0.174
TCTCAAGA | 0.0628
AATAGAGC | 0.102
GGCCCGGA | -0.364
CCGCGCCC | -0.289

Sequence | PBM E-score
AAGAGTAC | 0.154
CGTATGGC | 0.0766
GTCTTGGA | 0.0146
CGAGGTCA | 0.117
GCTCCCGA | -0.0307
CAAAATCA | 0.186
ATAGTACA | 0.115
CGGTGTAG | -0.0216
ACTTGCGC | -0.0578
AGCTGCGC | -0.176
TAAATCTA | 0.0622
AGGGAAGG | -0.242
CCATTCTC | -0.184
ACCACTTC | -0.267
AAGCATCA | -0.0953
AACGCAAT | 0.155
CTGGATTA | 0.0758
TCGCTGCA | -0.0065
TTACACAA | 0.18
CTGTAGAC | 0.0599
CGCGCGCG | 0.022
ATACTCGA | -0.0191
GAGCGCGA | 0.0878
CACGGAAG | 0.0525
GCTGCTCC | -0.23

Sequence | PBM E-score
AACGTAGC | -0.116
ATGACTTA | 0.475
CGCTGTAC | -0.0492
CGCCGTCA | -0.157
ACCCTTCT | -0.153
TCCGCTAA | 0.0224
ACATGGGC | 0.0253
TAGGCAGA | 0.0685
GCTGGGCA | -0.136
AGCGTGAA | -0.0798
AGGTCCTC | -0.246
ATCTGACC | 0.0418
GAGTGATC | 0.0688
ATTTACGA | 0.12
AAGACCGC | -0.239
TCCGGAGA | -0.0667
ACCAACTA | 0.0682
CCACCTAG | -0.00871
CATCATCG | 0.125
AGTCTTGA | 0.296
ATACGCAA | 0.108
ACTGGGGA | -0.278
AACTGGAC | -0.122
CGATTCAC | 0.266
AAGAAGCG | -0.211

Sequence | PBM E-score
AATTATCA | 0.108
AGGACACG | -0.0572
AATAAGCA | -0.0011
AGGGTCGC | -0.194
GAACGAGC | -0.188
ACGCCAAG | -0.0486
CCGGGCTC | -0.0838
GCGGGAAC | -0.213
CCCACCAC | -0.12
GATGGTGA | -0.066
GACTGCGA | 0.337
AACCTCCA | -0.267
CGCTGGAG | -0.0957
CACGAACG | -0.08
CTAACGTC | 0.0985
GAGGACTA | 0.369
GAGTGACA | 0.036
ACCGCCTG | -0.209
ATCTACCA | -0.0905
ATGCCTAA | -0.129
AGGTGCGA | 0.00693
GCTGCTGA | 0.0536
AGAAAGAA | 0.0786
ATTTTTCC | -0.0879
CTGGAAGA | 0.0967

Sequence | PBM E-score
AACCCCAG | -0.047
AACTGCGA | -0.0669
AACCCCCG | -0.369
TCATTCGA | 0.132
TAGATAGA | -0.00479
AAACCGGG | -0.0401
ATTGCAAC | -0.0826
CCAACGCC | -0.241
CAAGCTGG | -0.146
CTAGTTCA | 0.0478
AGATCGGC | -0.24
AGGGATAG | -0.255
CTTTTTGC | -0.0384
AGATGTAG | -0.0949
TACTGATA | 0.0643
AGTCACAC | 0.477
GCGCGTAA | -0.14
ATTTAGAC | 0.272
AAAGAACC | -0.0415
AAAGGCCT | -0.252
GCAGCGTA | -0.0827
AACTTTCA | -0.102
GCTCTCCA | -0.226
CTGACCGA | -0.108
ACGGAGAC | 0.125

Sequence | PBM E-score
GCTAGCGA | -0.142
ACAAAGCG | -0.00891
GATTAACA | 0.367
ATGCTAGA | -0.0387
ACCGAACC | -0.0893
GGCGTATA | -0.1
AAGTTATA | 0.00722
ACAGCCGT | -0.185
CGTAGGAA | -0.0602
CCATTGGC | -0.0145
AGTTTCGA | -0.0241
ATTAGCAG | -0.0796
TCGCGCCA | 0.0373
ATTACTAC | 0.073
TCATTAGA | 0.19
AGACCTGG | -0.261
ATGGATGG | -0.0396
CGGCTCGA | 0.195
ATTACCGG | 0.0416
CATCCTGG | -0.0782
TCTAGTAA | -0.0245
ACTCGGGC | 0.12
GATGCACA | -0.176
GTTGTCGA | -0.158
ATTTCCCC | -0.274

Sequence | PBM E-score
AGCACATA | 0.0171
ATGATGTA | 0.0484
ATGCTTTC | -0.175
GAACTTGA | 0.0831
ACGGACCG | -0.153
GGTATTTA | -0.0324
AAAAGAAG | 0.0497
CTATAGAA | 0.0616
GATGATCC | 0.118
AGGTGGTG | -0.197
CCGGAGAG | -0.0818
CTAACCGC | 0.0313
ATCGTAGA | 0.0225
CTAACTCC | 0.0875
TTATCGAA | -0.172
CTTACGTA | 0.131
AACGAGAA | 0.0779
AACGAAAA | 0.0213
TAGTCGGA | 0.288
ACCCGAGT | 0.0782
ACTAACCG | 0.163
ATAAGAAA | -0.00846
AACTTTCC | -0.196
TACCTACA | -0.0717
AAACGGCT | -0.25

Sequence | PBM E-score
AAGTGAAG | -0.0561
ATGGAGTG | -0.143
ACTATCAT | 0.172
AGTTCACA | 0.0835
AGGTTAGA | 0.00887
TCAATCAA | 0.281
ACCGCAAC | -0.0492
CGTATATC | -0.199
ATCCCCCC | -0.274
CTCAGGCC | -0.12
CGTGCCTA | -0.311
AGTACTCG | 0.261
ACTCCGCT | 0.0247
CTTTTCCA | -0.0828
CGCCAGGC | -0.0942
GACTCCCA | 0.381
GCGTTATA | -0.0598
AGCTCTAG | -0.103
GAATCAAC | 0.358
